The full ranking holds about 33,000 sequences; the median of “E-score (-0.5 to 0.5)” is about -0.054, and the highest 2% start at about 0.39. The list shows a part of the results.
biological target: Ylr278c (UniProt Q05854); experiment: PBM E-score (8-mer binding enrichment) (E-score (-0.5 to 0.5)); higher = stronger / more preferred TF binding; most listed sequences are background and not binding sites; details: protein concentration: 200 nM; construct: GST-DNA-binding domain
Outline: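 PURExpress in vitro transcription/translation supplied GST-tagged yeast transcription factors, either full-length or DNA-binding domain. Applied at about 100-200 nM to universal all-10-mer Agilent arrays double-stranded by primer extension, the bound protein was detected with fluorescent anti-GST. E-scores, modified Wilcoxon-Mann-Whitney statistics, were given by the Universal PBM Analysis Suite to ungapped eight-base words pooled with their reverse complements after masliner normalisation.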

Sequence | PBM E-score
CAAGTTCA | 0.106
CCGTTCGA | 0.0394
CGCGGCTC | 0.276
CTGCAGAA | 0.0638
CAGATGCA | -0.238
AACCACGA | -0.143
CATAACCC | -0.0526
CTTGCAAA | 0.034
GAATTGTA | -0.0727
AGAAACAA | 0.00831
ACATTAAG | -0.305
CCCGCCGA | 0.334
ACCGGTTA | 0.293
GTTGGGTA | -0.168
GGAGGCTA | 0.106
CCCAAGGC | 0.0152
ATAATCGC | 0.00024
GTGTTATA | -0.101
CCAAAAAG | -0.111
ACCACGGG | 0.076
AATTTTAC | 0.0636
CCGCCGCG | 0.347
ATCCTTTG | -0.118
ACCTTTTA | -0.217
GATCGGCC | 0.226

Sequence | PBM E-score
GTATGCAC | -0.125
CACTTTTC | 0.11
ATGCCCGG | 0.345
AAAATCCT | 0.0735
CCTGGATA | -0.149
ACCAGCTC | -0.13
CGTCAACG | 0.0817
ACATCGCG | 0.0985
TAAGTTAA | -0.0777
GATTGTGC | 0.0423
CCTGCCGC | -0.0615
TCGGTAAA | 0.199
ACTGACGA | -0.167
AGATACTC | -0.016
AGTCTCCG | 0.434
GCTGCCAC | 0.00937
AAGGACAT | -0.204
GAAAAATA | 0.0789
GAGTACTC | 0.0459
GCAGTGTA | -0.203
AACACTCA | 0.0548
AGGAGCCA | -0.297
TGGTGGAA | -0.0956
ACAGGCCG | 0.156
GTAAAAGA | -0.136

Sequence | PBM E-score
ACCAAAGT | -0.0748
AACCAGTG | -0.11
CGAAGCAG | 0.0313
TTCCTCAA | -0.0792
ACAGCTGG | -0.0998
GAAAGCGC | 0.06
GAACCTTC | -0.0979
CCTAGACG | -0.0786
CTAATTTA | -0.0718
CACTGCAG | -0.143
AGATTCGC | -0.0847
ATACCACG | 0.022
ATGGCGTG | -0.206
CGTGTACA | -0.144
CACTTTAA | 0.0526
CGGTAAAA | 0.256
GACCTGCC | -0.0574
CACTAACG | -0.17
CCTTCCTC | -0.149
GCGTGACC | -0.0159
GAATATTC | 0.135
AAGCCCAA | -0.0867
CACAGAGA | -0.156
CAATCTAG | -0.0575
CAACCGGA | 0.414

Sequence | PBM E-score
AACGTGGC | -0.0871
ACTCGGGA | 0.24
CGATCCGC | 0.241
AGTATTAC | -0.0424
CCCTCAGG | -0.219
ACTGAAAT | -0.168
ATGATGTC | 0.0944
AGTTACTG | 0.0764
AGAAATGG | -0.0667
CCTGGCTA | -0.265
CACAAGGC | -0.0453
CAGGAGTC | 0.055
TGAGCTCA | 0.0455
CACATGTG | -0.206
CATCAACA | 0.0398
AGACTGGA | -0.176
AATGTCCG | 0.458
GAAAGCCA | -0.115
CTGTCACA | -0.218
AAAAATTA | 0.0229
ATGCGTGC | -0.188
GAATGTCC | 0.219
AAGGATCA | -0.168
ATGAAGAC | -0.204
AACTTTAA | 0.0291

Sequence | PBM E-score
TAGCTGGA | -0.361
GGGAGCTA | -0.0279
CGTACGCC | 0.181
ATAAGGCA | -0.168
CTCGTGGA | -0.0362
GAGCGTGA | -0.0208
ATGAGTTG | 0.0404
ATGTAGAA | -0.0637
AAATCGCC | 0.175
CAATCAAG | -0.205
CACAGTTA | -0.193
CGAAAAGA | 0.0562
TGCAAACA | -0.384
ACTAGGCG | 0.0778
CGAATCGA | 0.163
ATCCCGCG | 0.357
CGTTGCTC | 0.072
GTTGTAGA | -0.223
ACGATACC | 0.0214
CGTGTCTC | -0.113
AAGCAGAT | -0.0158
TGCGATAA | -0.0659
CGTACACA | -0.146
ATGTCACC | -0.036
AGTGGACC | -0.189

Sequence | PBM E-score
AATGGGGC | -0.14
ATGTCCGA | 0.455
CGATTTAA | 0.0417
CATTAAAC | -0.165
CAGGGATG | -0.146
CTGTAACC | 0.0533
GCTCTCCC | -0.0961
AAAATATT | 0.05
ATTATGCA | -0.208
AAAGCATG | -0.177
CCGGGAAA | 0.354
GGGAGGGA | 0.194
CATAAATC | 0.13
GATTTGGA | -0.0154
GAGTAACA | 0.132
AAGGGTCA | -0.126
ATCTTCTA | -0.0443
ACGGAAGC | 0.199
CACCCTGC | -0.0141
GCATTCCC | 0.0781
TACCTCAA | -0.221
CGCCAGCG | -0.0683
TTGTGAAA | -0.235
ACATGATC | 0.0767
AAGGTTTA | -0.163

Sequence | PBM E-score
ACATACCC | -0.128
GCAAAGGA | 0.0145
ATCAACTA | -0.111
ATATTCCC | 0.277
GAATTGCC | 0.182
GACCAACC | -0.153
AAAGCAGA | -0.0727
CAAGAGGA | -0.324
AAGCGAAC | 0.00399
CGCGCTCA | -0.0872
ATACGACC | -0.192
CTGGGCTA | -0.0701
CTATTTCA | 0.0631
CGCCAGGA | -0.0548
AGCGACGG | 0.221
ACGAGCAG | -0.129
AAATCATA | -0.0761
ACCGTCGT | -0.0162
CATCTTCC | 0.22
ACATTGGC | -0.222
CACCGGAC | 0.439
CGGGCGAA | 0.171

From the supplement of paper PMC3334620
